Conditions: Gallus gallus, 35 °C, GdnHCl, CD, Sodium acetate 0.1 M, reversible: Unknown

For “Lysozyme C wild type (sequence left out)”, the denaturant m value (pH 4) was 2.59 kcal/mol/M, the “denaturant midpoint (higher = more stable)” value (“denaturant midpoint” for short) (pH 4) was 3.26 M and the unfolding free energy (pH 4) was 8.44 kcal/mol. The denaturant m value (pH 4.5) was 2.59 kcal/mol/M, the “denaturant midpoint” value (pH 4.5) was 3.69 M and the unfolding free energy (pH 4.5) was 9.56 kcal/mol. For the same substance, the denaturant m value (pH 5) was 2.59 kcal/mol/M, the “denaturant midpoint” value (pH 5) was 3.63 M and the unfolding free energy (pH 5) was 9.4 kcal/mol. For the same substance, the denaturant m value (pH 5.5) was 2.59 kcal/mol/M, the “denaturant midpoint” value (pH 5.5) was 3.61 M and the unfolding free energy (pH 5.5) was 9.35 kcal/mol.

Reference: FireProtDB (doi:10.1021/bi00152a018)
